From PubChem BioAssay AID1240 (Sanford-Burnham Center for Chemical Genomics, 2008)
The campaign covered roughly 50,000 compounds. About 800 (1.6%) showed an effect of 50% or more. Some of the results follow.

These molecules were tested against Bcl-2-like protein 10 (Homo sapiens) (UniProt Q9HD36) (assay: TR3 peptide-Bcl-B binding displacers, biochemical primary FP assay, phenotype converters (AID 1240;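 note: 0% = Bcl-B with tracer peptide and DMSO and 100% = tracer peptide lacking Bcl-B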)). Settings: GST-Bcl-B / FITC-TR3 peptide fluorescence polarization; stronger effect = higher value; compound at 3.75 mg/L.
UniProt Q9HD36, sequence (Q9HD36 whole entry, looked up): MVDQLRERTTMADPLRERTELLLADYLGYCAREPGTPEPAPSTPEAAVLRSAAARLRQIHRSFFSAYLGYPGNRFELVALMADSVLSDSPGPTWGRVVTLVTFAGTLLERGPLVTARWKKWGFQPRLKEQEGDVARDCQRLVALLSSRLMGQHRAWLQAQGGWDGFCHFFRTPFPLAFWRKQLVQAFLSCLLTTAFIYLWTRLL

In order of falling displacement:
1. O=c1[nH]c(=O)n(-c2cccc(Cl)c2)c(O)c1C=NCCCn1ccnc1  142%
2. COc1ccc(N=Nc2c(C)[nH]c3ccccc23)cc1  30.2%
3. Cc1ccc(OCC(=O)NNC(=O)c2ccco2)c(C)c1  30%
4. CCN1C(=O)/C(=C\c2ccccc2OCCOCCOc2ccc(C)cc2)SC1=S  26.9%
5. O=C(Cc1ccccc1)c1ccc(O)cc1O  21%
6. CCC(C)Oc1nc2ccccc2nc1NS(=O)(=O)c1ccccc1 (configuration not stated)  20.4%
7. Cc1nnc(C)n1/N=C/c1ccc(O)cc1O  17.9%
8. COC(=O)C1=C(O)/C(=C/c2ccccc2O)N=C1C  17.2%
9. N#CSCCCCOc1ccccc1Br  15.9%
10. CCOC(=O)C1(P(=O)(c2ccccc2)c2ccccc2)CCOCC1  15.5%
11. CCc1ccc(-c2cc(C(=O)N3CCN(c4cccc(Cl)c4)CC3)c3ccccc3n2)cc1  15.2%
12. O=C(Nc1cccc2ccccc12)C(O)(c1ccccc1)c1ccccc1  15.1%
13. COc1ccc(S(=O)(=O)N(CCc2ccccc2)CC(=O)NCCc2ccccc2)cc1  14.7%
14. COc1ccccc1CC(=O)Nc1nccs1  14.6%
15. O=C(O)CCC(=O)N1N=C(c2ccccc2)CC1c1ccccc1Cl (configuration not stated)  13.2%
16. O=[N+]([O-])c1ccc(Nc2nc(OCC(F)(F)C(F)F)nc(OCC(F)(F)C(F)F)n2)cc1  12.4%
17. CC(=O)NN1C(=O)/C(=C/c2cc3c(cc2[N+](=O)[O-])OCO3)SC1=S  12.3%
18. CCOc1ccc(N2C(=O)NC(=O)/C(=C\c3ccc(OCC(=O)O)c(OC)c3)C2=O)cc1  12%
19. COc1ccc(OC)c(NC(=O)c2ccc3c(c2)C(=O)N(c2ccc(Cl)cc2)C3=O)c1  10.9%
20. COC(=O)C1=C(C)NC2=C(C(=O)c3ccccc32)C1c1ccc(-c2ccccc2C(=O)O)o1 (configuration not stated)  10.7%
21. O=C(CCc1ccccc1)NCC(=O)N/N=C/C=C/c1ccccc1  10.6%
22. CC(C)C(C(=O)O)N1C(=O)/C(=C/c2cccc([N+](=O)[O-])c2)SC1=S (configuration not stated)  10.4%
23. Cc1c([N+](=O)[O-])c2ccc(O)cc2n1-c1ccc(Cl)cc1  10.3%
24. O=[N+]([O-])c1ccc(N2CCN(S(=O)(=O)c3ccccc3)CC2)c2cccnc12  10.2%
25. Cc1c(C(=O)OC(C)C)sc(NC(=O)/C=C/c2ccco2)c1C(N)=O  10%
26. S=C(Nc1ccccc1)Nc1ccccc1NC(=S)Nc1ccccc1  9.7%
27. O=C(Nc1ccccc1)c1ccc(NS(=O)(=O)c2ccccc2)cc1  9.6%
28. COc1ccc2ccccc2c1/C=C1\SC(=S)N(CC(=O)O)C1=O  9.6%
29. O=C(Nc1ccc2oc(-c3ccccc3)nc2c1)c1ccc2c(c1)OCCO2  9.6%
30. CCOc1ccc(C(=O)Nc2ccc(NC(=O)c3ccccc3)c(C)c2)cc1  9.4%
31. Cc1nc2[nH]onc2c2nccc(=O)c12  9.3%
32. COCCCN1C(=O)/C(=C\c2ccccc2O)C(C(=O)OC)=C1C  9.1%
33. COc1ccc(Cl)cc1NC(=O)Cn1nc([N+](=O)[O-])cc1C  9.1%
34. CCOC(=O)c1c(NC(=O)CCc2ccccc2)sc(C(=O)Nc2cc(C(F)(F)F)ccc2Cl)c1C  9%
35. Cc1ccc(C=Nc2ccc(-c3ccc([N+](=O)[O-])cc3)cc2)s1  8.9%
36. Cc1cc(OCC(=O)Nc2ccc(Cl)cc2C)ccc1Br  8.7%
37. COC(=O)c1c(N)sc(C)c1-c1ccc(C(C)(C)C)cc1  8.1%
38. CCCCOc1ccc(C(=O)NCCOc2ccc(C)c(C)c2)cc1  8.1%
39. Cc1ccc(P(=O)(CC(=O)O)c2ccc(C)cc2)cc1  6.9%
40. O=C(c1ccccc1Br)N1CCN(c2c(Cl)cccc2[N+](=O)[O-])CC1  6.4%
41. Cc1ccc(C2CC(C(F)(F)F)n3nc(C(=O)N4CCN(c5ccc(F)cc5)CC4)cc3N2)cc1 (configuration not stated)  6.2%
42. CC(=O)N1CCN(c2ccc(NC(=O)c3cccc([N+](=O)[O-])c3)cc2)CC1  5.3%
43. COc1ccc(/C=C2\C(=O)NC(=O)N(c3ccc(C)cc3)C2=O)cc1C(=O)O  5.1%
44. COc1cc(/C=C2\C(=O)NC(=O)N(c3ccc(Br)cc3)C2=O)c([N+](=O)[O-])cc1OC  5%
45. CCc1nnc(NC(=O)c2ccc(OC)cc2OC)s1  4.7%
46. Cc1ccccc1NC(=O)C1C2C=CC(C3CC23)C1C(=O)O (configuration not stated)  4.7%
47. O=C(O)/C=C/C(=O)Nc1ccc(N2CCCCC2)cc1  4.7%
48. COc1ccc(/C=C/C(=O)NCc2ccc(OC)cc2)cc1  3.7%
49. Cc1ccc(CC2C(=O)N(c3ccc([N+](=O)[O-])cc3)C(=O)C2C)cc1 (configuration not stated)  3%
50. COCCCNC(=O)CN(c1ccc(Cl)cc1)S(C)(=O)=O  2.8%
51. NC(=O)C1CCN(C(=O)c2cccc(Br)c2)CC1  2.7%
52. O=C(/C=C/c1ccccc1)C1=C(O)C(=O)N(c2ccccc2)C1c1ccccc1F (configuration not stated)  2%
53. COc1c(I)cc(I)cc1C1NC(=O)c2c(sc3c2CCCC3)N1 (configuration not stated)  2%
54. O=C(O)c1cccc2c1-c1ccccc1/C2=N\O  2%
55. COc1ccccc1NCN1C(=O)S/C(=C/c2ccc(OC)c(OC)c2)C1=O  1.6%
56. COc1ccccc1OCCn1cc(/C=C2/C(=O)NC(=O)N(c3ccccc3)C2=O)c2ccccc21  1.6%
57. COc1ccc(CCNC(=O)c2ccc(CN(c3ccccc3)S(C)(=O)=O)cc2)cc1OC  1.6%
58. COCCc1nnc(NC(=O)Cc2ccccc2)s1  1.2%
59. COC(=O)c1cccc(-n2c(C)cc(/C=C3\SC(NC(C)=O)=NC3=O)c2C)c1  1.1%
60. O=C(COc1cccc(Cl)c1)Nc1ccc(OCc2ccccc2)cc1  1%
61. COc1cccc(NC(=O)c2cc([N+](=O)[O-])ccc2Br)c1  0.9%
62. COc1cc(/C=c2\sc3nc4cc(C)c(C)cc4n3c2=O)ccc1OCc1ccc(C)cc1  0.9%
63. CC(=O)NC(=Nc1nc2ccccc2s1)NC(C)=O  0.8%
64. COc1ccc(NC(=O)Nc2nnc(Cc3ccccc3)s2)cc1  0.6%
65. O=P(CO)(Cc1ccccc1)Cc1ccccc1  0.4%
66. O=C(O)CCCC(=O)Nc1ccc(CC(=O)O)cc1  0%
67. COc1ccc(/C=N/Nc2nc(N3CCCCC3)nc(N3CCCCC3)n2)cc1OC  -0.1%
68. CCCCC(=O)Nc1nnc(Cc2ccc(Cl)cc2Cl)s1  -0.2%
69. CCOC(=O)C1=C(O)/C(=C/c2ccc(Br)cc2)SC1=Nc1cccc(Cl)c1  -0.3%
70. O=c1oc2cc(Oc3ccc(C(F)(F)F)cc3[N+](=O)[O-])ccc2c2c1CCCC2  -0.6%
71. CCCN(CCC)C(=O)c1ccc(Cl)cc1  -0.6%
72. O=C(CSc1nc2ccccc2s1)OCc1ccc([N+](=O)[O-])cc1  -0.7%
73. COc1cc(/C=C(\NC(=O)c2cc(OC)c(OC)c(OC)c2)C(=O)NC(C(=O)O)c2ccccc2)cc(OC)c1OC (configuration not stated)  -0.7%
74. Brc1cccc(/C=N\N2CCN(c3ccccc3)CC2)c1  -0.8%
75. O=c1oc(-c2ccc(Cl)c(Cl)c2)nc2cc(Cl)ccc12  -1.2%
76. O=C(Nc1cccc(-c2cn3ccccc3n2)c1)c1cccnc1  -1.3%
77. CCCCCC(=C/c1ccccc1)/C=N/NC(N)=O  -2.8%
78. CC(C)(C)c1ccc(OCC(=O)Nc2ccc(N3CCOCC3)c(Cl)c2)cc1  -3.1%
79. COc1ccccc1N1CCN(/N=C\c2ccccn2)CC1  -3.2%
80. Cc1ccc(C23CC4CC(CC(C(=O)N5CCCC5)(C4)C2)C3)cc1  -3.3%
81. CC(=O)NC12CC3CC(CC(O)(C3)C1)C2  -3.3%
82. COc1ccccc1/C=C1/SC(=S)N(CCC(=O)N2c3ccccc3Sc3ccc(Cl)cc32)C1=O  -3.4%
83. Cc1ccc(-c2ccc(OCC(=O)Nc3ccc4c(c3)OCCO4)cc2)cc1  -3.4%
84. CCCS(=O)(=O)c1c(S(=O)(=O)CCC)c2cc(-c3ccncc3)ccn2c1C(=O)c1ccccc1  -3.5%
85. c1nnc(Sc2nc(N3CCOCC3)nc(N3CCOCC3)n2)n1-c1nc(N2CCOCC2)nc(N2CCOCC2)n1  -3.5%
86. CC(=O)Nc1ccc(S(=O)(=O)Nc2nc(C)cc(-n3nc(C)cc3C)n2)cc1  -3.7%
87. Cc1sc(-c2c(C#N)c(N)nc3c2CCCCC3)cc1Br  -3.7%
88. COc1ccc(OC)c(C(O)c2nc3ccccc3n2C)c1 (configuration not stated)  -3.9%
89. COc1ccc(C2NN=C(c3ccccc3)S2)c2ccccc12 (configuration not stated)  -4.2%
90. C/C(CC(=O)N1CCCCC1)=N\NC(=O)c1cccc(O)c1  -5.1%
91. O=C(O)CN1C(=O)/C(=C2/SC(=Nc3cccc(Cl)c3Cl)NC2=O)c2ccccc21  -5.6%
92. O=C(NCc1ccco1)c1ccc(C#Cc2ccccc2)cc1  -5.8%
93. COc1cc(OC)c(OC)cc1CN1CCN(C2C3CC4CC(C3)CC2C4)CC1 (configuration not stated)  -6%
94. CCOc1ccc(S(=O)(=O)NNc2ccccc2)cc1  -6.1%
95. COc1cc(/C=C2\C(=O)NC(=O)N(c3ccc(Br)cc3)C2=O)cc([N+](=O)[O-])c1O  -6.3%
96. Oc1c(Cl)cc(Cl)cc1/C=N/Nc1ncc(Br)cn1  -8%
97. COc1cc(C2N(C)c3ccccc3N2C)cc(OC)c1OC  -8.1%
98. CCCCc1c(C)nc(N/N=C/c2ccc(OC)c(OC)c2)[nH]c1=O  -8.4%
99. CCOC(=O)c1sc(-n2nc(C)cc2C)nc1C  -8.5%
100. CN(C)c1ccc(NC(=O)Nc2ccc(Cl)cc2)cc1  -8.6%
101. Cc1ccnc(NC(=O)c2cc(-c3ccc(Cl)s3)nc3ccccc23)c1  -8.7%
102. CC(=O)C1=C(O)C(=O)N(c2nc3ccccc3s2)C1c1ccccc1 (configuration not stated)  -9.1%
103. Cc1ccc(C23CC4CC(CC(C(=O)NCc5ccco5)(C4)C2)C3)cc1  -10.6%
104. COC(=O)C1=NN(C(=O)C(C)C)C(O)(c2ccccc2)C1 (configuration not stated)  -11.7%
105. NC(=O)C12CC3CC(C1)CC(C(N)=O)(C3)C2  -18.4%
106. COc1ccc(C(=O)N2CCN(C(=O)c3ccccc3F)CC2)cc1OC  -22%
107. COC(=O)C1=C(C)N=c2s/c(=C\c3ccc(-c4ccccc4C(=O)O)o3)c(=O)n2C1c1ccccc1 (configuration not stated)  -44%
